Among the data in PubChem BioAssay AID360 (National Center for Advancing Translational Sciences (NCATS), 2006) are Potency values, retold here.

Among all 48,000 compounds or so, about 550 (1.1%) were called active. About 4% were inconclusive and are not listed. Cut-off read from the data, not from the text of the source: active = potency below about 15 µM; inconclusive = mostly about 16 µM to 33 µM; inactive = weaker than that. The list shows a part of the results.
Potency is the fitted concentration of half-maximal effect.

Sequence of UniProt P04062 (P04062 whole entry, looked up): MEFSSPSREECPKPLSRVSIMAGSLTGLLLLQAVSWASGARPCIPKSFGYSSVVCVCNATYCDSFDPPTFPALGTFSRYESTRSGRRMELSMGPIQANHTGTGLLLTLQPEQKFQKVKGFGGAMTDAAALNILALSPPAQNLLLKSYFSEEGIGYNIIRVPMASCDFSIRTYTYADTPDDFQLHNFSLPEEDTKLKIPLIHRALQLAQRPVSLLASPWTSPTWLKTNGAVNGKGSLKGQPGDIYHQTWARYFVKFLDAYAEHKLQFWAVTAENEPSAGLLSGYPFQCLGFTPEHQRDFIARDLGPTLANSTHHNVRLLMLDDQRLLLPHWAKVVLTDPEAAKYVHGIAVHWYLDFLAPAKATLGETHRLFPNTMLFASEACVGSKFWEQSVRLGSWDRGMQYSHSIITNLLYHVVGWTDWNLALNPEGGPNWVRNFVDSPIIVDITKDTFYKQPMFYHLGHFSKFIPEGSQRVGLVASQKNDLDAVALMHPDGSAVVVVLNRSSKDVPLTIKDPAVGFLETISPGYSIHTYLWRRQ

The target in the test is Lysosomal acid glucosylceramidase (Homo sapiens) (UniProt P04062). Briefly: Glucocerebrosidase.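 Note: the screen sought inhibitors.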 To be noted: purified enzyme, resorufin glucoside fluorescence (screen aimed at inhibitors), 20 min. In outline:
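Compounds titrated against 0.2 nM normal enzyme, 30 uM resorufin beta-D-glucopyranoside substrate, citrate/phosphate buffer with taurocholate and tween-20, pH 5.9. Reaction ran 20 min at room temperature; fluorescence (Ex 548/Em 600) gave AC50.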
Consider `O=C(OCc1cc(=O)n2c(n1)sc1ccccc12)c1ccc2c(=O)n3c(nc2c1)CCC3`, for which the Potency is inactive: > 76.9 µM.

For `O=C1Nc2ccc(S(=O)(=O)NCc3ccccn3)c3cccc1c23`, the Potency was inactive: > 76.9 µM.

As to `CN1CCN(c2c(F)cc3c(=O)c(C(=O)O)cn4c3c2SCC4)CC1`, the Potency is inactive: > 76.9 µM.

Turning to `C/C(Cl)=C\Cn1c(N2CCCCCC2)nc2c1c(=O)n(C)c(=O)n2C`, the Potency is inactive: > 76.9 µM.

`N#Cc1ccccc1NC(=O)c1ccccc1OCC(=O)Nc1ccc2c(c1)oc1ccccc12`: the Potency was active: 11.2 µM.

On to `CCOC(=O)c1cc2c(=O)n3cccc(C)c3nc2n(Cc2ccccc2Cl)c1=N`, for which the Potency is inactive: > 76.9 µM.

`CCn1c(CC(=O)Nc2cccc(OC)c2)nnc1SCC(=O)Nc1nccs1`: the Potency is inactive: > 76.9 µM.

With `CCOc1ccc(Cc2nc(-c3nonc3N)no2)cc1OCC`, the Potency was inactive: > 76.9 µM.

Consider `CCN1CCCC1CNC(=O)C1CCN(Cc2nc(-c3cccc(Br)c3)oc2C)CC1` (stereo unspecified), for which the Potency was inactive: > 76.9 µM.

For `CCOC(=O)c1cc(C)sc1NC(=O)C1CCC1`, the Potency was inactive: > 76.9 µM.

`Cc1ccc(SC(C)C(=O)NCC(C)C)cc1` (stereo unspecified): the Potency was inactive: > 76.9 µM.

For `O=C(CSC1=NCCS1)N1CCCC1`, the Potency is inactive: > 76.9 µM.

Take `Cc1ccc(-n2ncc3c(=O)n(CC(=O)N4CCCCCC4)cnc32)cc1`: the Potency was inactive: > 76.9 µM.

Consider `Cc1ccccc1NC(=O)c1cccc2nccnc12`, for which the Potency was inactive: > 76.9 µM.

Regarding `O=C(CCCn1c(SCC(=O)NC2CCCCC2)nc2ccccc2c1=O)NCC1CCCO1` (stereo unspecified), the Potency was inactive: > 76.9 µM.

Turning to `CCOC(=O)C1=C(C)OC(N)=C(C#N)C1c1c(C)nn(-c2ccccc2)c1Cl` (stereo unspecified), the Potency was inactive: > 76.9 µM.

On to `COC(=O)C1=C(N)Oc2cc(C)n(CCc3ccccc3)c(=O)c2C1c1cccnc1` (stereo unspecified), for which the Potency was inactive: > 76.9 µM.

For `CCCC(=O)N1CCN(c2ccc(NC(=O)c3ccccc3)cc2)CC1`, the Potency was inactive: > 76.9 µM.

With `Brc1cccc(-c2nnc3sc(CN4CCCCC4)cn23)c1`, the Potency was inactive: > 76.9 µM.

On to `O=C(c1noc2c1CCCC2)N1CCN(c2ccccc2)CC1`, for which the Potency is inactive: > 76.9 µM.

On to `COc1cc2[nH]c(=S)nc(NCC3CCCO3)c2cc1OC` (stereo unspecified), for which the Potency entry was “inactive”.

As for `CN1CC[n+]2c(CN3C(=O)c4ccccc4C3=O)csc21`, the Potency was inactive: > 76.9 µM.

In the case of `Cc1ccc(-c2c3c(=O)n(C)c(=O)n(C)c3cn2Cc2cccnc2)cc1`, the Potency is inactive: > 76.9 µM.

For the compound `CCNC(=O)c1sc(=S)n(CC)c1N`, the Potency is inactive: > 76.9 µM.

For `CCCCCNC(=O)C(C#N)c1nc2ccccc2nc1N1CCCC1` (stereo unspecified), the Potency was inactive: > 76.9 µM.

For `Cc1ccc(N2C(=O)CSC2c2cccs2)cc1` (stereo unspecified), the Potency was inactive: > 76.9 µM.

Turning to `CCOC(=O)c1cc2sc(C)cc2n1CC(=O)N1CCN(C(=O)c2ccco2)CC1`, the Potency is inactive: > 76.9 µM.

Regarding `Cc1ccc(S(=O)(=O)NC2CCCC(C(=O)O)C2)cc1` (stereo unspecified), the Potency was inactive: > 76.9 µM.

Turning to `CS(=O)(=O)N1CCN(c2ncccn2)CC1`, the Potency is inactive: > 76.9 µM.

Turning to `O=C(O)C1C2C=CC3(CN(c4cccc(C(F)(F)F)c4)C(=O)C13)O2` (stereo unspecified), the Potency was inactive: > 76.9 µM.

As for `O=C(O)CN1C(=O)Nc2ccc(Br)cc2C1c1ccccc1` (stereo unspecified), the Potency was inactive: > 76.9 µM.

`CCOC(=O)CN1C(=O)CSc2ccccc21`: the Potency was inactive: > 76.9 µM.

In the case of `Cc1sc2ncn(CC(=O)OC(C)C(=O)NC(C)(C)C)c(=O)c2c1C` (stereo unspecified), the Potency is inactive: > 76.9 µM.

As for `Cc1ccc(N2CC(C(=O)NCCC(C)C)CC2=O)cc1` (stereo unspecified), the Potency is inactive: > 76.9 µM.

Consider `Fc1ccc(-n2cnnn2)c(F)c1`, for which the Potency was inactive: > 76.9 µM.

On to `c1ccc2c(c1)CCN(c1nc3cc4c(cc3s1)OCO4)C2`, for which the Potency was inactive: > 76.9 µM.

For the compound `Cn1c(=O)c2c(SCc3cccc(C(F)(F)F)c3)nc(-c3ccco3)nc2n(C)c1=O`, the Potency is inactive: > 76.9 µM.

In the case of `Cc1ccc(N2C(=O)CSC2c2cccnc2)cc1F` (stereo unspecified), the Potency is inactive: > 76.9 µM.

Turning to `COC(=O)c1ccc(C)c(NC(=O)CN(c2ccc3c(c2)OCO3)S(C)(=O)=O)c1`, the Potency is inactive: > 76.9 µM.

`COc1cccc(N(C(=O)CNC(=O)c2ccco2)C(C(=O)NC2CCCC2)c2ccncc2)c1` (stereo unspecified): the Potency was inactive: > 76.9 µM.

With `COCCn1cnnc1SCC(=O)c1ccc(S(=O)(=O)N2CCCC2)cc1`, the Potency was inactive: > 76.9 µM.

In the case of `O=C(O)CCC(=O)Nc1ccccc1N1CCOCC1`, the Potency is inactive: > 76.9 µM.

Regarding `CCn1c(SCC(=O)NCc2cccs2)nnc1-c1cccs1`, the Potency was inactive: > 76.9 µM.

For the compound `O=c1c2cc(N3CCOCC3)ccc2[nH]c(=S)n1CCCN1CCCCC1`, the Potency was inactive: > 76.9 µM.

Turning to `O=C1c2ccccc2NC2CCCCCN12` (stereo unspecified), the Potency was inactive: > 76.9 µM.

Turning to `O=C(CS(=O)(=O)Cc1ccccc1)N1CCN(c2cccc(C(F)(F)F)c2)CC1`, the Potency was inactive: > 76.9 µM.

As for `COc1ccc(C2CC(C(F)(F)F)n3ncc(C(=O)NCc4cccnc4)c3N2)cc1OC` (stereo unspecified), the Potency is inactive: > 76.9 µM.

Take `CCC(CCC(=O)Nc1cccc(C(=O)O)c1)C(=O)O` (stereo unspecified): the Potency is inactive: > 76.9 µM.

For `Nc1cc(N)nc(SCC(=O)N2CCCCC2)n1`, the Potency is inactive: > 76.9 µM.

In the case of `CCOC(=O)CSc1nnc(CNC(=O)c2cccc(C)c2)n1-c1ccccc1OC`, the Potency was inactive: > 76.9 µM.

On to `Cc1cc(C(F)(F)F)n2ncc(-c3ccccc3)c2n1`, for which the Potency was inactive: > 76.9 µM.

With `CCC(C)c1ccc(NC(=O)C2CCCN(c3ncccn3)C2)cc1` (stereo unspecified), the Potency was inactive: > 76.9 µM.

`COc1ccc(C(CC(=O)O)NC(=O)Cc2ccccc2)cc1` (stereo unspecified): the Potency was inactive: > 76.9 µM.

For the compound `CCOC(=O)c1c(-c2ccc(C)o2)csc1NC(=O)COC(=O)c1cccs1`, the Potency is inactive: > 76.9 µM.

As for `Cc1ccc(SCCNC(=O)C(C)C)cc1`, the Potency is inactive: > 76.9 µM.

In the case of `COc1ccc(OC)c(S(=O)(=O)N2CCN(C34CC5CC(CC(C5)C3)C4)CC2)c1`, the Potency was inactive: > 76.9 µM.

Take `O=C(Cn1[nH]c(=O)c2ccccc2c1=O)NC1CCN(Cc2ccccc2)CC1`: the Potency was inactive: > 76.9 µM.

`COc1ccccc1NC(=O)CSc1nnc(-c2ccncc2)o1`: the Potency was inactive: > 76.9 µM.

For the compound `CCOC(=O)C1CCCN(C(=O)Cc2ccc(OC)c(OC)c2)C1` (stereo unspecified), the Potency is inactive: > 76.9 µM.

`O=C(CN1CCN(c2nc(-c3ccccc3)cs2)CC1)NCc1ccc2c(c1)OCO2`: the Potency is inactive: > 76.9 µM.

For the compound `COc1cc(C)c(-c2cc(C(=O)O)c(C)o2)cc1C(C)C`, the Potency is inactive: > 76.9 µM.

For `Cc1nc(NCc2ccco2)c2oc3ccccc3c2n1`, the Potency is inactive: > 76.9 µM.

As for `COC(=O)C1(C(F)(F)F)N=C(N(C)C)OC(N(C)C)=N1`, the Potency is inactive: > 76.9 µM.

As for `Cc1ccc(S(=O)(=O)N2CCN(C(=O)COC(=O)COc3ccccc3)CC2)cc1`, the Potency was inactive: > 76.9 µM.

As for `COc1cc2c(C#N)c(N3CCc4ccccc4C3)nc(N)c2c(N)n1`, the Potency is inactive: > 76.9 µM.

On to `Cc1ccc(CN2C(=O)CCC2C(=O)NCc2ccco2)cc1` (stereo unspecified), for which the Potency is inactive: > 76.9 µM.

`c1csc(-c2nc3ccccc3[nH]2)c1`: the Potency was inactive: > 76.9 µM.

`Cc1cc2cc(CCNC(=O)c3ccc(Br)o3)c(=O)[nH]c2cc1C`: the Potency is inactive: > 76.9 µM.

On to `c1ccc(-n2c(-c3ccncc3)nnc2N2CCOCC2)cc1`, for which the Potency is inactive: > 76.9 µM.

For `CC1(C)NC(C)(C)C(O)(C(N)=O)C1=O` (stereo unspecified), the Potency was inactive: > 76.9 µM.

`Cn1c(=O)[nH]c(=O)c2c1nc(Sc1ncccn1)n2CCCc1ccccc1`: the Potency is inactive: > 76.9 µM.

Consider `Cc1ccc(S(=O)(=O)N2CCN(C)CC2)cc1-c1nnc2c3ccccc3c(C)nn12`, for which the Potency was inactive: > 76.9 µM.

Turning to `COc1cc2c(cc1OC)-c1cc(OCc3cccnc3)nc(=O)n1CC2`, the Potency was inactive: > 76.9 µM.

Take `COc1cccc(/C=c2\sc3nc(-c4cccs4)nn3c2=O)c1OC`: the Potency was inactive: > 76.9 µM.

As to `O=c1oc2ccccc2c(O)c1/C=N/c1ncccn1`, the Potency was inactive: > 76.9 µM.

With `CCn1c(SCC(=O)N2CCC(C(N)=O)(N3CCCCC3)CC2)nnc1-c1ccccc1`, the Potency was inactive: > 76.9 µM.

On to `Cc1ccc(S(=O)(=O)c2nc(N3CCOCC3)sc2Cl)cc1`, for which the Potency is inactive: > 76.9 µM.

Regarding `Cc1cnnc2c1-c1no[n+]([O-])c1CC2`, the Potency is inactive: > 76.9 µM.

As to `COC(=O)c1cc(NC(=O)CCc2c(C)nc3ncnn3c2C)cc(C(=O)OC)c1`, the Potency is inactive: > 76.9 µM.

`CCc1ccc(-c2nc(CS(=O)CC(=O)NCc3cccnc3)c(C)o2)cc1` (stereo unspecified): the Potency was inactive: > 76.9 µM.

`CC(C)CCOCC(=O)Oc1ccccc1C(=O)O`: the Potency was inactive: > 76.9 µM.

Take `Cc1ccc(-c2nc3ncccn3c2Nc2ccc3c(c2)OCCO3)o1`: the Potency is inactive: > 76.9 µM.

On to `COC(=O)CN1C(=O)C2(C(C#N)=C(N)Oc3n[nH]c(-c4cccs4)c32)c2ccccc21` (stereo unspecified), for which the Potency was inactive: > 76.9 µM.

On to `CCOC(=O)N1CCN(C(=O)c2ccc(C)c(S(=O)(=O)Nc3cccc(C)c3C)c2)CC1`, for which the Potency is inactive: > 76.9 µM.

Take `Cn1cnc2cc(OC(=O)c3ccccc3)ccc21`: the Potency is inactive: > 76.9 µM.

As to `COc1ccccc1-n1c(SCC(=O)Nc2nnc(C)s2)nc2c(c1=O)SCC2`, the Potency is inactive: > 76.9 µM.

For `CCc1nc(SCC(=O)Nc2cc(C)on2)n[nH]1`, the Potency is inactive: > 76.9 µM.

In the case of `C=CCn1c(SCC(=O)Nc2ccccc2)nnc1-c1cccc(S(=O)(=O)N2CCOCC2)c1`, the Potency was inactive: > 76.9 µM.

For `c1ccc(-c2nc(CSc3nnnn3-c3ccccc3)cs2)cc1`, the Potency was inactive: > 76.9 µM.

Take `O=C(COC(=O)CCCNC(=O)c1ccc(Cl)cc1)NC1CC1`: the Potency is inactive: > 76.9 µM.

Regarding `Nc1c2c(nc3ccn(-c4ccccc4)c(=O)c13)CCCCC2`, the Potency entry is “inactive”.
